Data from PubChem BioAssay AID2546 (National Center for Advancing Translational Sciences (NCATS), 2010).
Several values for one entry are separate records, joined by “and”; a condition that tells them apart may be missing. Equal entries are not always repeated. About 11,000 (3.5%) of roughly 310,000 compounds were called active. This list was built around the results that the source calls inconclusive (neither active nor inactive); the mix of calls is not that of the screen. Calls come from the whole dose curve; as a rule, active = well fitted inhibition curve with a large enough effect; inconclusive = small, poorly fitted or top-dose-only effect, or effect the other way; inactive = flat fitted curve, though single readings scatter. Where the call is inconclusive, the potency comes from a doubtful curve fit.

assay: VP16 counterscreen qHTS for inhibitors of ROR gamma transcriptional activity; conditions: Drosophila S2 Gal4-VP16 UAS-luciferase, luminescence, 20 h; activity, negative = inhibition: at 53.6 µM (top of the series);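 note: Gal4-VP16 expression switched on by copper sulfate through the metallothionein promoter; nearly all actives have a fitted effect of over 50% in size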
% is set by controls: 0 for no effect and ±100 for the full control effect; potency is the fitted concentration of half-maximal effect; tags give direction and shape of the fitted curve.

Row | Compound | Potency | activity, negative = inhibition
1 | COc1cccc(C(=O)NN2c3ccccc3CCc3ccccc32)c1 | inconclusive: 7.94 µM [inhibitor, partial curve] | 
2 | CC(C)(C)C1CCC(=NNC(=O)c2cc(-c3ccccc3)n[nH]2)CC1 (stereo unspecified) | active: 20 µM | 
3 | O=C(NCC1CCCO1)C(=O)N/N=C/c1cc(Cl)ccc1O (stereo unspecified) | inconclusive: 12.6 µM [inhibitor, single point] | 
4 | O=C(N/N=C/c1c(O)n(-c2ccc(Cl)cn2)c(=O)c2ccccc12)C1CC1 | active: 7.94 µM | 
5 | CN(C)CCCN(C(=O)c1ccco1)c1nc(-c2ccc(Cl)cc2)cs1 | inconclusive: 35.5 µM [inhibitor, single point] | 
6 | C/C(=N\Nc1nc2ccccc2s1)c1ccc(Br)s1 | inconclusive: 28.2 µM [inhibitor, single point] | 
7 | O=C(CO)[C@@H](O)C(O)[C@@H](O)CO (stereo partly specified) |  | inactive: -6.36%
8 | O=C(O)c1ccc(/C=N/Nc2ccc(F)cc2F)cc1 | inconclusive: 11.2 µM [inhibitor, partial curve] | 
9 | CC(=O)N1CCN(c2ccc(NC(=O)c3ccc([N+](=O)[O-])o3)cc2Cl)CC1 | inconclusive: 12.6 µM [inhibitor, partial curve, poor fit] | 
10 | CC(C)CCNc1c(-c2cccs2)nc2ccccn12 |  | inactive: -4.45%
11 | Cc1ccc(Nc2nc3c(c(=O)[nH]2)CCCC3)cc1 | inconclusive: 3.55 µM [activator, full curve, poor fit] | 
12 | O=C(Cc1ccccc1)NNc1c2ccccc2nc2ccccc12 | inconclusive: 22.4 µM [inhibitor, single point] | 
13 | Cc1ccc(CSCC(=O)NCc2ccco2)cc1 |  | inactive: -0.749% [at 10 µM]
14 | CCCOc1ccc(N2C(=O)CC(N3CCN(c4ccc([N+](=O)[O-])cc4)CC3)C2=O)cc1 (stereo unspecified) | inconclusive: 7.94 µM [inhibitor, partial curve, poor fit] | 
15 | CC(C)/C=C1\CC/C(=C\c2cccnc2)C1=O |  | inactive: 5.13%
16 | O=C(N/N=C\c1c(O)ccc2ccccc12)c1cncc(Br)c1 | active: 4.47 µM | 
17 | Cc1c(Cl)cccc1NC(=S)NC1CCN(Cc2ccccc2)CC1 |  | inactive: -95.5%
18 | Cc1ccc(Nc2ccccc2)cc1 | inconclusive: 35.5 µM [inhibitor, single point] | 
19 | CCOc1cccc(C(=O)Nc2ccncc2)c1 |  | inactive: -15.1%
20 | COC(=O)[C@@]1(Cc2ccc(OC)cc2)[C@H]2c3cc(C(=O)N4CCCC4)n(CCN4CNCC4=O)c3C[C@H]2CN1C(=O)c1ccccc1 |  | inactive: -10.5%
21 | O=C(NCC(c1ccc(F)cc1)N1CCOCC1)c1cc(F)c(F)c(F)c1F (stereo unspecified) |  | inactive: 3.37%
22 | Cn1c(=S)[nH]c2sc3c(c2c1=O)CCC(C(C)(C)C)C3 (stereo unspecified) | active: 1 µM | 
23 | COc1ccc(OCc2cc(/C=N\NC(=O)c3ccccc3)ccc2OC)cc1 | inconclusive: 35.5 µM [inhibitor, single point] | 
24 | CCCN1CNC(=S)N(CCc2ccccc2)C1 | active: 3.16 µM | 

Row | Compound | Potency | activity, negative = inhibition
25 | O=[N+]([O-])c1cccc(-c2ccc(/C=N/n3c(-c4ccccc4)n[nH]c3=S)o2)c1 | active: 10 µM | 
26 | CCN(c1ccccc1)c1cc(NC)[n+](C)c(C)n1 |  | inactive: -2.37%
27 | CN1CCN(CCCN2c3ccccc3Sc3ccc(Cl)cc32)CC1 | inconclusive: 35.5 µM [inhibitor, single point] and inconclusive: 12.6 µM [inhibitor, single point] | 
28 | S=C(Nc1ccc(Cl)cc1Cl)NC1CCCCC1 | active: 0.891 µM | 
29 | CCOC(=O)c1c(NC(C)=O)sc2c(O)c(CN3CCN(CC)CC3)ccc12 |  | inactive: -19.4%
30 | O=C(OCC1OC(OC(=O)c2cc(O)c(O)c(OC(=O)c3cc(O)c(O)c(O)c3)c2)[C@@H](OC(=O)c2cc(O)c(O)c(OC(=O)c3cc(O)c(O)c(O)c3)c2)C(OC(=O)c2cc(O)c(O)c(OC(=O)c3cc(O)c(O)c(O)c3)c2)C1OC(=O)c1cc(O)c(O)c(OC(=O)c2cc(O)c(O)c(O)c2)c1)c1cc(O)c(O)c(OC(=O)c2cc(O)c(O)c(O)c2)c1 (stereo partly specified) | inconclusive: 14.1 µM [inhibitor, single point] | 
31 | O=C(O)/C=C/c1nc(-c2ccccc2)n2ccccc12 |  | inactive: -10.2%
32 | CCOC(=O)c1c(NC(=O)Nc2ccc(Cl)cc2)sc(C)c1C | inconclusive: 14.1 µM [inhibitor, single point] | 
33 | C/C(=N\OCC(=O)Nc1ccccc1C(=O)O)c1cccs1 | inconclusive: 35.5 µM [inhibitor, single point] | 
34 | c1ccc(CNc2nc(NCc3ccccc3)c3ccccc3n2)cc1 | inconclusive: 35.5 µM [inhibitor, single point] | 
35 | CCOC(=O)c1c(N)sc(C(=O)Nc2ccc3c(c2)OCO3)c1C | active: 5.62 µM | 
36 | Cc1ccc(NS(=O)(=O)c2ccc(NC(=O)C3CCCO3)cc2)cc1 (stereo unspecified) | active: 17.8 µM | 
37 | N/C(Cc1ccc(Cl)cc1)=N\OC(=O)c1ccc2ccccc2c1 | active: 20 µM | 
38 | Cc1ccc([N+](=O)[O-])cc1NC(=O)c1ccc(C(C)(C)C)cc1 | inconclusive: 35.5 µM [inhibitor, single point] | 
39 | COc1ccccc1NC(=O)CCc1nnc2ccc(N3CCC4(CC3)OCCO4)nn12 | inconclusive: 10 µM [inhibitor, partial curve] | 
40 | O=C(CC1SC(=NCC2CCCO2)NC1=O)Nc1cccc2ccccc12 (stereo unspecified) |  | inactive: -14.8%
41 | COc1cccc(-n2c(N)c(-c3nc4ccccc4[nH]3)sc2=S)c1 | inconclusive: 11.2 µM [inhibitor, partial curve] | 
42 | COCC(C)n1c(SCc2ccc(C(=O)OC)o2)nc2ccccc2c1=O (stereo unspecified) | inconclusive: 35.5 µM [inhibitor, single point] | 
43 | Cc1cc(NC(=O)CCC(=O)N(c2ccccc2)C(C(=O)NC2CCCC2)c2ccccc2F)no1 (stereo unspecified) |  | inactive: 6.04%
44 | COc1ccc(-c2nc(CSCC(=O)NCc3ccc4c(c3)OCO4)c(C)o2)cc1 | active: 12.6 µM | 
45 | COc1ccccc1NC(=O)c1cc(C(=O)Nc2ccccc2OC)cc([N+](=O)[O-])c1 | inconclusive: 0.0035 µM [activator, full curve, poor fit] | 
46 | COc1ccc(C/C(N)=N/OC(=O)c2ccc(Cl)cc2)cc1 |  | inactive: -13.2%
47 | COc1cc(C(=O)NC(=S)NC(C)C)cc(OC)c1OC | inconclusive: 35.5 µM [inhibitor, single point] | 
48 | CCC(C)c1ccc(OCC(=O)Nc2ccc(CN3CCOCC3)cc2)cc1 (stereo unspecified) |  | inactive: -1.19%

Row | Compound | Potency | activity, negative = inhibition
49 | CC(C)CC(=O)NCCNC(=O)c1cc(OCC(F)(F)F)ccc1OCC(F)(F)F |  | inactive: 4.14%
50 | Cc1[nH]n(-c2ccccc2)c(=O)c1C=Nc1ccc(S(=O)(=O)NC(N)=O)cc1 |  | inactive: -20.3%
51 | CCCC(=O)O[C@H]1C[C@@H](C)N(C(=O)c2ccccc2)c2ccc(C)cc21 | inconclusive: 17.8 µM [inhibitor, single point] | 
52 | CCOC(=O)c1sc(=NC(=O)c2ccc(Cl)s2)n(C)c1C | inconclusive: 0.562 µM [activator, full curve] | 
53 | Cc1ccnc(NC(=O)c2ccc(N3C(=O)CCC3=O)cc2)c1 | inconclusive: 11.2 µM [inhibitor, partial curve] | 
54 | CCC(NC(=O)Nc1nnc(C(F)(F)F)s1)(C(F)(F)F)C(F)(F)F | active: 3.55 µM | 
55 | O=C(c1ccccc1)N1CCC(c2nc(-c3ccc(S(=O)(=O)N4CCOCC4)cc3)no2)CC1 | inconclusive: 35.5 µM [inhibitor, single point] | 
56 | Cc1ccc(NC(=S)N/C(=N/S(=O)(=O)c2ccccc2)c2ccccc2)cc1 | active: 12.6 µM | 
57 | CCn1cc(C(=O)NCCCN2CC(C)CC(C)C2)c2cc(OC)c(OC)cc2c1=O (stereo unspecified) | inconclusive: 12.6 µM [inhibitor, partial curve] | 
58 | COc1ccc(/C=C/C2=CC(C)(C)NC(=S)N2)c(OC)c1 | active: 3.55 µM | 
59 | Cc1ccc(OCc2cc(C(=O)N3CCCCCCC3)no2)cc1C | inconclusive: 1.41 µM [activator, partial curve] | 
60 | Cc1ccc(-c2cc(-c3ccc(Cl)cc3)c(C#N)c(N)n2)o1 | inconclusive: 35.5 µM [inhibitor, single point] | 
61 | CC(C)(C)c1ccc(C(=O)NCC(=O)OCC(=O)c2ccc3c(c2)-c2ccccc2C3)cc1 | inconclusive: 5.62 µM [activator, single point] | 
62 | CCn1cc(CN2CCC(C(=O)Nc3cccc(-c4cccc(Cl)c4)c3)CC2)c(C)n1 | inconclusive: 35.5 µM [inhibitor, single point] | 
63 | Cc1ccc(N(C)S(=O)(=O)c2cccc(C(=O)NC3=NCCS3)c2)cc1 | inconclusive: 35.5 µM [inhibitor, single point] | 
64 | Cc1ccccc1C(=O)Oc1ccc(Sc2ccc(O)cc2)cc1 | inconclusive: 35.5 µM [inhibitor, single point] | 
65 | O=C(Cn1nc(-c2ccccc2)c2ccccc2c1=O)Nc1ccc(O)cc1 |  | inactive: -9.99%
66 | N#Cc1c(NC(=O)/C=C/c2ccco2)sc2c1CCCC2 | inconclusive: 12.6 µM [inhibitor, partial curve] | 
67 | CCOc1ccc(Nc2nc(-c3sc(N)nc3C)cs2)cc1 | inconclusive: 14.1 µM [activator, single point] | 
68 | COC(=O)C1CCN(C(=O)Cc2c(OC)ccc3cc(Br)ccc23)CC1 | inconclusive: 11.2 µM [inhibitor, partial curve] | 
69 | Cc1ccc(-c2nc3ccc(Cl)cc3c(=O)n2O)cc1 | active: 11.2 µM | 
70 | CCOC(=O)C1=C(CCl)NC(=O)NC1c1ccc2c(c1)OCO2 (stereo unspecified) | inconclusive: 11.2 µM [inhibitor, partial curve] | 
71 | O=C(Nc1ccc(-c2nc3ccccc3o2)cc1)c1cc(-n2cnnc2)ccc1Cl | inconclusive: 5.62 µM [activator, single point] | 
